Measured values: paper PMC4336329 (PLoS ONE, 2015)
About 2,200 (0.71%) of roughly 310,000 compounds showed an effect of 50% or more. The effect is printed as a negative number. The list shows a part of the results.

target: human ether-à-go-go-related gene (hERG) potassium channel (human, UniProt Q12809); assay: primary screen, population patch clamp on CHO cells stably expressing hERG
Sequence (Q12809 whole entry, looked up): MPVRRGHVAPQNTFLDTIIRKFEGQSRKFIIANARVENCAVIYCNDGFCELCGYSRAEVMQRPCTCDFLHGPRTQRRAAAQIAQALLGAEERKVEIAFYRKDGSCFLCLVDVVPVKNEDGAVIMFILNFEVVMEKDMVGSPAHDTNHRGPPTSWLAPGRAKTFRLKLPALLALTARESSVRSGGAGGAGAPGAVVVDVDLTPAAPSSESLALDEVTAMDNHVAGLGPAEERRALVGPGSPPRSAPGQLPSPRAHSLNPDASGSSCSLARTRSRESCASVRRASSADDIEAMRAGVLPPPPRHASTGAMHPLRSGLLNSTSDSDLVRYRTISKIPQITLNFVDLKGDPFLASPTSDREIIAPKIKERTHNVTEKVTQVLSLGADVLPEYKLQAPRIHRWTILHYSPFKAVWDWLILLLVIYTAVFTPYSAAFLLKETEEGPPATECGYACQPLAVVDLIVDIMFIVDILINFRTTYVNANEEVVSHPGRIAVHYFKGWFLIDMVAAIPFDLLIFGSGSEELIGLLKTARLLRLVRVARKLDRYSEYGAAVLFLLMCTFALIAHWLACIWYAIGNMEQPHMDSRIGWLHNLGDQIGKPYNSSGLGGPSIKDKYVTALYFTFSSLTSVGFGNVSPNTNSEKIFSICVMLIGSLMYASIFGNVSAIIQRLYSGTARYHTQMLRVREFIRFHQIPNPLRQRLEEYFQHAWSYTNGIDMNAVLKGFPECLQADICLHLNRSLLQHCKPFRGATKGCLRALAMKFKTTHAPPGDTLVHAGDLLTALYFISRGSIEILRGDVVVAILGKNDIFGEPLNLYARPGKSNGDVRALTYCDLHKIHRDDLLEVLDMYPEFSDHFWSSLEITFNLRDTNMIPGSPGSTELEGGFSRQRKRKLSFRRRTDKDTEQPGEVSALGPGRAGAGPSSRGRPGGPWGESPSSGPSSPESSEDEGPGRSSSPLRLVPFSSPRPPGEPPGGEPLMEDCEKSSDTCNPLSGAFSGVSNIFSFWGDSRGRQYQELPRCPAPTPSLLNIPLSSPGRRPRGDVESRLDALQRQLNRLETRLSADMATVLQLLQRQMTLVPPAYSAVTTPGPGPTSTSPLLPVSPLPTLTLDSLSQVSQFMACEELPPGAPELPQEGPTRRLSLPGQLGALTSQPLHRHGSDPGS

SMILES | hERG current change (%, negative = inhibition) at 1uM [%]
COC(=O)C1=C(N)Oc2cc(C)n(Cc3cccnc3)c(=O)c2C1c1cc(OC)ccc1OC (stereo not shown) | 2.03
CO/N=C/c1cn(-c2ccc(Cl)cc2)nn1 | 15.5
C=CCN(Cc1cccs1)C(=O)CN1CCN(S(=O)(=O)c2ccc3c(c2)OCCCO3)CC1 | 10.9
Cc1ccccc1-c1nc(CS(=O)(=O)CC(=O)NCCCN2C(C)CCCC2C)c(C)o1 (stereo not shown) | 2.14
Cn1c(=NC(=O)c2ccccc2[N+](=O)[O-])sc2cccc(F)c21 | 9.25
COc1cc(C(=O)NNC(=O)c2cccc(Cl)c2)ccc1OCC(=O)N1CCOCC1 | -9.17
C=CC(=O)NCc1ccc(-c2csnn2)cc1 | 0.013
COc1cccc(CNC(=O)CCC2CCCN(C(=O)c3ccoc3)C2)c1 (stereo not shown) | 19.3
Cc1nn(-c2ccc(Cl)cc2)c(N)c1C(O)(CSc1nccn1C)C(F)(F)F (stereo not shown) | -2.64
O=C1c2ccccc2C(=O)N1CC1=CCS(=O)(=O)C1 | 5.15
Cc1ccccc1CSc1ccc(-c2ccc3c(c2)OCO3)nn1 | -8.46
CCC1=NN(C(=O)C(=O)NCCc2ccccc2)C(O)(C(F)(F)F)C1 (stereo not shown) | -3.4
COc1ccc(CNC(=O)COC(=O)CN2C(=O)NC3(CCCC3)C2=O)cc1 | 10.9
CC1(C(=O)NNC(=O)C2CCCCC2)CC1(Cl)Cl (stereo not shown) | 14.2
CCn1c(CNC(=O)c2ccccc2F)nnc1SCc1nc2ccccc2c(=O)[nH]1 | 7.8
CCN(CC)CCC(c1ccc(N(C)C)cc1)c1c(OC)cc(OC)c2c(-c3ccccc3)cc(=O)oc12 (stereo not shown) | 3.18
Oc1c(Br)cc2oc3c(c2c1CNCc1ccccc1)CCCC3 | 16.1
CC1CCN(c2nc3c(c(=O)[nH]c(=O)n3C)n2CC(C)CSc2nnnn2-c2ccccc2)CC1 (stereo not shown) | -0.615
CN(CC(=O)Nc1cccc(S(=O)(=O)N2CCCCC2)c1)Cc1ccc(F)cc1 | -4.26
O=c1[nH]c(=O)n(CCC2=CCCCC2)c(O)c1/C=N/N1CCOCC1 | -3.9
O=C(NCCCCc1ccccc1)c1cc([N+](=O)[O-])cc([N+](=O)[O-])c1 | 6.09
COc1cc(/C=C/C(=O)Oc2coc(CSc3ncccn3)cc2=O)cc(OC)c1OC | 9.21

SMILES | hERG current change (%, negative = inhibition) at 1uM [%]
CCOc1ccc(N2C(=O)NC(=O)/C(=C\c3cc(OC)c(OC)cc3[N+](=O)[O-])C2=O)cc1 | 21.7
C[C@@H](C(=O)Nc1ccc2c(c1)OCO2)n1c(=O)[nH]c2ccccc2c1=O | 13.4
Cc1ccc(S(=O)(=O)N(Cc2ccc(Cl)cc2)c2ccccc2C(=O)NCc2cccnc2)cc1 | 7.96
O=C(CO/N=C\c1ccccc1)Nc1ccccc1C(=O)N1CCOCC1 | 9.75
O=C(CCN1CCOCC1)N1CCc2c([nH]c3ccccc23)C1c1cccc(Cl)c1 (stereo not shown) | -24.3
CCOP(=O)(OCC)c1nc(-c2ccc(C)cc2)oc1N1CCOCC1 | -0.453
COc1cccc(OC)c1C(=O)Nc1cccc(-c2ccc(N3CCOCC3)nn2)c1 | 18.3
CCOC(=O)C1CCCN(C(=O)c2cnn3c(C(F)(F)F)cc(-c4ccccc4)nc23)C1 (stereo not shown) | 9.29
Cc1ccc(S(=O)(=O)N(C)C)cc1NC(=O)COC(=O)CCC(=O)c1ccc(F)cc1 | 8.22
Cc1ccc(-c2nc(N)sc2CC(=O)OCC(=O)N2C(C)CCCC2C)cc1 (stereo not shown) | 1.93
O=C(NC(=S)NCCc1ccccc1)c1ccccc1F | 13.7
Cc1cc(S(=O)(=O)N2CCN=C2c2ccccc2)c(C)cc1Cl | 4.74
Cc1cc(C)n2nc(C(=O)N(C)C(c3ccccc3)c3ccccc3)nc2n1 | 5.96
COCCOC(=O)/C(=C\c1cc(C(C)(C)C)c(O)c(C(C)(C)C)c1)C(C)=O | -1.13
Cc1cn(-c2ccccc2)c(C)c1/C=N\Nc1nc(N2CCOCC2)nc(N2CCOCC2)n1 | -0.321
Cc1cccc(Nc2ncnc3c2cnn3Cc2ccccc2)c1 | 10.2
CC(Cc1cccc(C(F)(F)F)c1)NCCOC(=O)c1ccccc1 (stereo not shown) | 2.87
COc1ccc(NC(=O)CN2CC(C)OC(C)C2)cc1Cl (stereo not shown) | 28.7
COc1ccc(S(=O)(=O)N2CCOC2CNC(=O)C(=O)NCCCN2CCOCC2)cc1OC (stereo not shown) | 8.89
Cc1cccc(C)c1NC(=O)C(c1ccccc1)N1CCOCC1 (stereo not shown) | 12.5
COc1ccc(NC(=O)Nc2ccccc2C(N)=O)cc1OC | 11.4
